Test results as given in the supplement of paper PMC4967469.

Legend:
Assay in all cases: Viability of human cancer cell lines after 72 h of drug (GDSC screen)
[1] = compound: COc1cc(C(=O)NC2CCN(C)CC2)ccc1Nc1ncc2c(n1)N(C1CCCC1)C(C)CC(=O)N2C [NPK76-II-72-1]; conditions: top dose 10.24 µM; top dose inferred
Description: (§1)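 Human cancer cell lines in 384-well plates, medium with 10% serum, drug for 72 h over a 256-fold dose range (nine 2-fold or five 4-fold steps up to the top dose). Adherent lines were fixed and stained with the nucleic acid dye Syto60, suspension lines read with resazurin; signal relative to control wells, capped at 0 and 100%. One two-parameter sigmoid per drug and line, fitted in a mixed model over all curves with the slope shared within a line.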

[2] = compound: C=C(c1ccc(C(=O)O)cc1)c1cc2c(cc1C)C(C)(C)CCC2(C)C [Bexarotene]; conditions: top dose 8 µM
Description: as §1

[3] = compound: Cc1ccc2nc(NCCN)c3ncc(C)n3c2c1 [BMS-345541]; conditions: top dose 16 µM
Description: as §1

[4] = compound: Oc1nc(-c2ccc(C(F)(F)F)cc2)nc2c1CSCC2 [XAV 939]; conditions: top dose 5 µM; top dose inferred
Description: as §1

[5] = compound: O=C(O)c1ccc(-c2c[nH]c3ncc(-c4ccccc4)cc23)cc1C1CCCC1 [GSK-650394]; conditions: top dose 16 µM; top dose inferred
Description: as §1

[6] = compound: COc1ccc(C(=O)CC2(O)C(=O)Nc3c(Cl)ccc(Cl)c32)cc1 [YK 4-279]; conditions: top dose 10 µM
Description: as §1

[7] = compound: NC(=O)Nc1cc(-c2cccc(F)c2)sc1C(=O)N[C@H]1CCCNC1 [AZD7762]; conditions: top dose 2 µM
Description: as §1

| Cell Line | AUC [1] | IC50 [1] | AUC [2] | IC50 [2] | AUC [3] | IC50 [3] | AUC [4] | IC50 [4] | AUC [5] | IC50 [5] | AUC [6] | IC50 [6] | AUC [7] | IC50 [7] |
| --- | --- | --- | --- | --- | --- | --- | --- | --- | --- | --- | --- | --- | --- | --- |
| NCI-H522 (lung adenocarcinoma, adherent) | 0.717 | 2.99 µM | 0.916 | > 8 µM | 0.785 | 8.27 µM | 0.967 | > 5 µM | 0.778 | 7.72 µM | 0.811 | 6.54 µM | – | – |
| NCI-H835 (lung carcinoid, suspension) | – | – | – | – | – | – | 0.968 | > 5 µM | – | – | 0.926 | > 10 µM | 0.93 | > 2 µM |
| NCI-H929 (myeloma, suspension) | – | – | – | – | – | – | 0.979 | > 5 µM | – | – | 0.899 | 9.43 µM | 0.737 | 0.522 µM |
| NCI-H1105 (small cell lung carcinoma, suspension) | – | – | – | – | – | – | 0.988 | > 5 µM | – | – | 0.877 | 7.05 µM | 0.938 | > 2 µM |
| NCI-H1299 (large cell lung carcinoma, adherent) | 0.941 | > 10.2 µM | 0.93 | > 8 µM | 0.93 | > 16 µM | 0.88 | > 5 µM | 0.751 | 6.37 µM | 0.697 | 2.56 µM | – | – |
| NCI-H1341 (small cell lung carcinoma, suspension) | – | – | – | – | – | – | 0.982 | > 5 µM | – | – | 0.777 | 3.43 µM | 0.632 | 0.273 µM |
| NCI-H1573 (lung adenocarcinoma, adherent) | 0.961 | > 10.2 µM | 0.987 | > 8 µM | 0.921 | > 16 µM | 0.99 | > 5 µM | 0.971 | > 16 µM | 0.896 | > 10 µM | – | – |
| NCI-H1793 (lung adenocarcinoma, adherent) | 0.973 | > 10.2 µM | 0.951 | > 8 µM | 0.962 | > 16 µM | 0.951 | > 5 µM | 0.98 | > 16 µM | 0.897 | > 10 µM | – | – |
| NCI-H2030 (lung adenocarcinoma, adherent) | 0.821 | 7.07 µM | 0.918 | > 8 µM | 0.833 | 12.4 µM | 0.912 | > 5 µM | 0.778 | 7.45 µM | 0.804 | 5.83 µM | – | – |
| NCI-H2228 (lung adenocarcinoma, adherent) | 0.904 | > 10.2 µM | 0.829 | > 8 µM | 0.891 | > 16 µM | – | – | 0.624 | 2.62 µM | 0.809 | 8.99 µM | – | – |
| PC-3 (prostate, adherent) | 0.849 | > 10.2 µM | 0.93 | > 8 µM | 0.899 | > 16 µM | 0.955 | > 5 µM | 0.98 | > 16 µM | 0.85 | > 10 µM | – | – |
| PWR-1E (prostate, adherent) | – | – | – | – | – | – | 0.975 | > 5 µM | – | – | 0.752 | 3.3 µM | 0.494 | 0.121 µM |
| RCH-ACV (B-cell leukaemia, suspension) | – | – | – | – | – | – | 0.99 | > 5 µM | – | – | 0.686 | 1.86 µM | 0.381 | 0.0627 µM |
| RS4-11 (leukaemia, suspension) | 0.705 | 2.28 µM | 0.955 | > 8 µM | 0.841 | 9.81 µM | 0.971 | > 5 µM | 0.749 | 4.8 µM | 0.846 | 6.38 µM | – | – |
| SK-GT-2 (stomach, adherent) | – | – | – | – | – | – | 0.934 | > 5 µM | – | – | 0.695 | 2.28 µM | 0.68 | 0.41 µM |
| SK-LU-1 (lung adenocarcinoma, adherent) | 0.933 | > 10.2 µM | 0.857 | > 8 µM | 0.919 | > 16 µM | 0.963 | > 5 µM | 0.658 | 3.11 µM | 0.711 | 2.94 µM | – | – |
| SK-MEL-2 (melanoma, adherent) | 0.955 | > 10.2 µM | 0.951 | > 8 µM | 0.888 | > 16 µM | 0.964 | > 5 µM | 0.975 | > 16 µM | 0.735 | 3.01 µM | – | – |
| SK-MEL-31 (melanoma, adherent) | – | – | – | – | – | – | 0.958 | > 5 µM | – | – | 0.926 | > 10 µM | 0.679 | 0.457 µM |
| SKM-1 (haematopoietic neoplasm, suspension) | – | – | – | – | – | – | 0.982 | > 5 µM | – | – | 0.738 | 3.26 µM | – | – |
| SNU-1040 (large intestine, adherent) | 0.857 | > 10.2 µM | – | – | 0.826 | 14.5 µM | 0.965 | > 5 µM | – | – | 0.904 | > 10 µM | – | – |
| SU-DHL-8 (B-cell lymphoma, suspension) | 0.529 | 0.764 µM | 0.871 | 6.69 µM | 0.726 | 4.16 µM | 0.986 | > 5 µM | 0.903 | > 16 µM | 0.978 | > 10 µM | – | – |
| SU-DHL-10 (B-cell lymphoma, suspension) | 0.601 | 1.12 µM | – | – | 0.625 | 2 µM | 0.997 | > 5 µM | – | – | 0.981 | > 10 µM | – | – |
| SUP-B8 (B-cell leukaemia, suspension) | – | – | – | – | – | – | 0.968 | > 5 µM | – | – | 0.893 | > 10 µM | 0.671 | 0.373 µM |
| SW1116 (large intestine, adherent) | 0.978 | > 10.2 µM | – | – | 0.985 | > 16 µM | 0.982 | > 5 µM | – | – | 0.939 | > 10 µM | – | – |
| T-24 (bladder, adherent) | 0.929 | > 10.2 µM | 0.968 | > 8 µM | 0.907 | > 16 µM | 0.977 | > 5 µM | 0.981 | > 16 µM | 0.587 | 1.07 µM | – | – |
| TC-YIK (cervix, suspension) | – | – | – | – | – | – | 0.924 | > 5 µM | – | – | 0.661 | 1.63 µM | 0.643 | 0.292 µM |

A lower IC50 marks a more sensitive line; where the fit passes the top or lowest dose, that dose stands as a limit. AUC is the area under the same curve over the 256-fold range up to the top dose, as a fraction; values near 1 show little effect. For some assays here: A top dose marked as inferred was calculated from the reported fits.
